Assay results published in PubChem BioAssay AID445 (National Center for Advancing Translational Sciences (NCATS), 2006).
Hit rate of the full screen: of about 110,000 compounds, about 40 (0.04%) were called active. This list was built around the results that the source calls inconclusive (neither active nor inactive); the mix of calls is not that of the screen. Calls come from the whole dose curve; as a rule, active = well fitted curve in the direction sought with a large enough effect in the signal ratio (not every such curve was filed as active); inconclusive = small, poorly fitted or top-dose-only effect, or a change in a side signal; inactive = flat fitted curve, though single readings scatter; the % refers to the signal ratio. Where the call is inconclusive, the potency comes from a doubtful curve fit.

Assay: IkB Signaling;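 for IkBa stabilization activation: 0% = basal untreated cells and 100% = reference inhibitor full response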
Settings: ABC-DLBCL IkBa-CBG/CBR dual luciferase ratio (green luciferase fused to IkBa over red control in OCI-Ly3 lymphoma cells), 4 h; IkBa stabilization activation: at 57.1 µM (top of the series), scaled: untreated 0%, proteasome inhibitor 100% unless noted
Outline: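 Curves were fitted separately to fusion (green), unfused (red) and ratio luminescence, then classed by r2, magnitude and activity. Cells: OCI-Ly3, 4 h compound plus doxycycline at 37C; 10 uM MG-132 defined full response.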
Potency is the fitted concentration of half-maximal effect.

Structure (SMILES)	IkBa stabilization activation	Potency
COc1cc(C(=O)Nc2ccc(-n3c(C)nc4ccccc4c3=O)cc2)cc(OC)c1OC	inconclusive: 2.68% [signal inhibitor]	–
COCCCn1c(SCC(=O)N2CCc3ccccc32)nnc1-c1ccoc1C	inconclusive: 2.78% [signal inhibitor]	–
Cc1ccc2c(c1)c1c3n2CCN[C@H]3CCC1	inactive	–
Cc1ccc(-c2noc(-c3ccc(NCc4cccnc4)c([N+](=O)[O-])c3)n2)cc1	inconclusive: 0.905% [signal inhibitor]	–
CCCSc1ncnc2c1oc1ccccc12	inactive: -1.82%	–
COc1ccc(CNS(=O)(=O)c2cc(Br)cc3c2N(C(C)=O)C(C)C3)cc1 (stereo not given)	inconclusive: -5.18% [signal inhibitor]	–
CC(=O)C1=C(c2ccc(Cl)c(Cl)c2)N(C(C)=O)n2c(nnc2-c2ccccc2)S1	inconclusive: 3.8% [signal inhibitor]	–
O=C(COCc1cc(-c2ccc(F)cc2)on1)Nc1cc(Cl)ccc1O	inconclusive: 1.08% [signal inhibitor]	–
Cc1ccccc1-n1nc(CO)c(C(=O)NCC(c2ccccc2)c2ccccc2)n1	inconclusive: -0.062% [signal inhibitor]	–
Cc1ncsc1CCSc1nc2ccccc2c(=O)n1C	inconclusive: -1.35% [signal inhibitor]	–
CCOc1ccccc1NC(=O)c1cccc(NC(=O)c2ccco2)c1	inactive: -0.494%	–
COc1cccc(C2C=C(c3ccccc3)Nc3c(C(=O)Nc4ccccc4)cnn32)c1OC (stereo not given)	inconclusive: 1.81% [signal inhibitor]	–
CC(=O)Nc1nonc1-c1nnc(SCC(=O)Nc2cc(Cl)ccc2C)n1C	inconclusive: 2.47% [signal inhibitor]	–
COc1cc(OC)cc(C(=O)Nc2ccc(-c3nc4cc(C(C)C)ccc4o3)cc2)c1	–	inconclusive: 2510 nM [signal inhibitor, full curve]
Cc1ccc(C)c(N2CCN(S(=O)(=O)c3ccc(-c4coc(C)n4)cc3)CC2)c1	inconclusive: 0.45% [signal inhibitor]	–
CCCCN(CCCNC(=O)c1cc(Nc2ccc(OC)cc2)nc2ccccc12)Cc1ccccc1	inactive: -2.19%	–
COc1ccc(-n2cc(-c3ccc4c(c3)OCO4)n(CC(=O)Nc3cccc(C)c3C)c2=O)c(OC)c1	inconclusive: 4.73% [signal inhibitor]	–
CCC(c1nnnn1CCc1ccccc1)N(Cc1ccco1)Cc1cc2cccc(C)c2[nH]c1=O (stereo not given)	inconclusive: 7.32% [signal inhibitor]	–
CCn1cc(C(=O)N2CCN(c3ccccn3)CC2)c2cc(OC)c(OC)cc2c1=O	inactive: 4.18%	–
CCOC(=O)c1ccc(N2C(=O)c3n[nH]c(-c4cccs4)c3C2c2ccc(CC)cc2)cc1 (stereo not given)	inconclusive: 1.14% [signal inhibitor]	–
O=S(=O)(Nc1ccc(F)c(Cl)c1)c1ccc(Br)s1	inconclusive: 6.6% [signal inhibitor]	–
Cc1ccc(S(=O)(=O)c2nc(S(=O)(=O)c3ccc(C)cc3)c(NCCCOC(C)C)s2)cc1	inactive: 0.778%	–
O=C(Nc1ccc2c(c1)OCO2)c1cc(C2CC2)on1	inactive: 14.4%	–

Structure (SMILES)	IkBa stabilization activation	Potency
Cc1cccc(N2CCN(C(=O)Cn3ncc4c5ccccc5n(C)c4c3=O)CC2C)c1 (stereo not given)	inconclusive: 3.68% [signal inhibitor]	–
Cn1c(C(=O)N2CCC(C(=O)NCCc3ccccc3)CC2)cc2sccc21	inactive: 1.26%	–
CCC(C(=O)NC1CCCCC1)n1c(SCc2cccc(C)c2)nc2ccncc21 (stereo not given)	inactive: 1.36%	–
COc1ncc2nc(-c3ccccc3)c(=O)n(CCc3ccccc3)c2n1	inactive: -0.324% [at 11.4 µM, scaled: untreated 0%, proteasome inhibitor 100%]	–
NC(=O)c1ccc([N+](=O)[O-])cc1	inactive: -0.658%	–
Cc1nc2ccccn2c1-c1csc(NCc2ccco2)n1	inconclusive: 3.59% [signal inhibitor]	–
COc1ccc(OC)c(-c2cc(C(=O)Nc3c(C)nn(Cc4ccccc4C)c3C)no2)c1	inactive: 1.72%	–
COC(=O)c1cc(NC(=O)c2sc3ccccc3c2Cl)cc(C(=O)OC)c1	inconclusive: 6.6% [signal inhibitor]	–
CCOc1ccc(-c2nc(CSCC(=O)NCc3ccc(C)cc3)c(C)o2)cc1	inconclusive: 3.5% [signal inhibitor]	–
CC1=CC(C)(C)Nc2ccc(OC(=O)c3cccnc3)cc21	–	inconclusive: 3160 nM [signal inhibitor, partial curve]
O=C1Nc2ccccc2OC1CC(=O)N1CCN(c2cccc(C(F)(F)F)c2)CC1 (stereo not given)	inconclusive: 6.41% [signal inhibitor]	–
Cc1ccc(C)c(-n2nnc(-c3nc(-c4ccccc4C)no3)c2C)c1	inactive: -2.32%	–
COC(=O)c1ccc(-n2nnnc2SCc2ccccc2OC)cc1	inactive: 0.881%	–
COc1cccc(NC(=O)c2cc3c(-c4ccc(Cl)cc4)nn(C)c3s2)c1	inactive: 0.341%	–
COc1cccc(-c2nn3c(-c4cccc(C)c4)nnc3s2)c1	inactive: 3.89%	–
O=C(NCC(c1cccnc1)N1CCN(Cc2ccccc2)CC1)C(=O)Nc1cccc(Cl)c1 (stereo not given)	inconclusive: 1.83% [signal inhibitor]	–
COc1ccc(-c2nc3cnc(OC)nc3n(Cc3cccc(OC)c3)c2=O)cc1	inactive: 1.87% [at 11.4 µM, scaled: untreated 0%, proteasome inhibitor 100%]	–
NC(=O)CSc1nc2c(oc3ccccc32)c(=O)n1Cc1ccccc1	inconclusive: 0.648% [signal inhibitor]	–
Cc1ccccc1C(=O)Nc1c(C(=O)Nc2cccc(F)c2)oc2ccccc12	inconclusive: 4.01% [signal inhibitor]	–
O=C(NCc1ccc2c(c1)OCO2)c1ccc2c(c1)N(Cc1ccccc1F)C(=O)c1ccccc1S2=O (stereo not given)	inconclusive: 1.47% [signal inhibitor]	–
CCOC(=O)c1c(-c2ccccc2)oc2ccc(N(C(C)=O)S(=O)(=O)c3ccccc3)cc12	inconclusive: 2.65% [signal inhibitor]	–
Cc1ccc(C(=O)N2CCN(c3cccc(Cl)c3)CC2)cc1C	inconclusive: -1.65% [signal inhibitor]	–
